# From paper PMC4336329 (PLoS ONE, 2015)
# Screen size: about 310,000 compounds; about 2,200 (0.71%) showed an effect of 50% or more. Effects have a minus sign here. The list shows a part of the results.
# Biological target: human ether-à-go-go-related gene (hERG) potassium channel (human, UniProt Q12809)
# Test: primary screen, population patch clamp on CHO cells stably expressing hERG
# Chain of human ether-à-go-go-related gene (hERG) potassium channel (Q12809 whole entry, looked up): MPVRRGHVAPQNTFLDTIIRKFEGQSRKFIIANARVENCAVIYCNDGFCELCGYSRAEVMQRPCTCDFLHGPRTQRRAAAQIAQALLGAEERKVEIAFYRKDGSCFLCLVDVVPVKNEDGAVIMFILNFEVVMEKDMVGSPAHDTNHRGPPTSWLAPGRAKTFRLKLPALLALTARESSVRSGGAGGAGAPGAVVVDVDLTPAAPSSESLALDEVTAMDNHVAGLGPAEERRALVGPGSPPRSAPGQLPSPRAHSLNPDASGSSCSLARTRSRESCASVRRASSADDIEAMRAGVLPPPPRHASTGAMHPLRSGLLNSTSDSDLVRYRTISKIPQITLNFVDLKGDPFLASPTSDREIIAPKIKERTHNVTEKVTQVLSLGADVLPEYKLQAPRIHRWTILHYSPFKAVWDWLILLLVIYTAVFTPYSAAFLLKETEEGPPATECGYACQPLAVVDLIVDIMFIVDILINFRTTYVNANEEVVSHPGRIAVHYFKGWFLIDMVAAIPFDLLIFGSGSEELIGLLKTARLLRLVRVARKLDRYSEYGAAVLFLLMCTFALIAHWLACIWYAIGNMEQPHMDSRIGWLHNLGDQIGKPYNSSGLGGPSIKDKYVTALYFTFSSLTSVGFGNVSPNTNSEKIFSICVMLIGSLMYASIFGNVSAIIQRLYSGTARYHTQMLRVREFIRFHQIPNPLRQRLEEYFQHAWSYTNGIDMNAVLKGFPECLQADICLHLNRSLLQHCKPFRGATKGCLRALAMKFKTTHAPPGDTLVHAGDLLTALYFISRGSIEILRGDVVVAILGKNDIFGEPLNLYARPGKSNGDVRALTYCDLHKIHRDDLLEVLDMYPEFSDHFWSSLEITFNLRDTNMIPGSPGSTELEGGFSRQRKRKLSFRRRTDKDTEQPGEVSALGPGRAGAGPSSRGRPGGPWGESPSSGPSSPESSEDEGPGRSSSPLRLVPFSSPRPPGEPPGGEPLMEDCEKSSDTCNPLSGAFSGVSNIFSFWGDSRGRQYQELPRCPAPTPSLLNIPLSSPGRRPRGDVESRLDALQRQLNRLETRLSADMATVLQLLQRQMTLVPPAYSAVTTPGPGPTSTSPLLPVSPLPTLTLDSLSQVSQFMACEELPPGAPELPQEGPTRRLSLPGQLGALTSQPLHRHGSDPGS
row,Structure (SMILES),"hERG current change (%, negative = inhibition) at 1uM"
1,COc1ccc2[nH]cc(CCn3ccc(=O)c(C)c3C)c2c1,18%
2,COc1ccc2c(c1)n([O-])c1c([n+]2=O)CCC1,4.03%
3,CC1Cc2ccccc2N1C(=O)CCn1c(=O)oc2ccccc21 (centres unmarked),13.7%
4,Cc1cc(C)n2nc(C(=O)OCC(=O)c3cc(C)n(CC4CCCO4)c3C)nc2n1 (centres unmarked),15.5%
5,Cc1oc(-c2cc(F)cc(F)c2)nc1CN1CCSCC1,4.74%
6,CCc1ccccc1NC(=S)N(CCCN1CCOCC1)Cc1ccccn1,3.92%
7,CCCC1C2C(=O)N(c3ccccc3OC)C(=O)C2ON1c1ccccc1 (centres unmarked),10.2%
8,O=C(CCc1nc(-c2ccccc2)no1)N1CCCC1,13.6%
9,CCOC(=O)c1sc(=NC(=O)c2cccc(OC)c2)n(C)c1C,7.41%
10,O=C(NCCN1CCOCC1)c1sc2cc(Cl)ccc2c1Cl,6.87%
11,CCOC(=O)Nc1cccc(OCC(=O)Nc2ccc(OC)cc2OC)c1,11%
12,CCCn1ccnc1SCC(=O)Nc1c(C)n(C)n(-c2ccccc2)c1=O,-16.1%
13,Cc1cccc(Sc2ccc([N+](=O)[O-])cc2[N+](=O)[O-])n1,16.9%
14,CCOCCCn1c(C)nc2c[n+](CC(=O)c3ccc4ccccc4c3)cc(Br)c21.[Br-],8.91%
15,O=c1[nH]c(C(Cl)(Cl)Cl)nc2ccc3ccccc3c12,9.83%
16,CN(CC(=O)Nc1ccccc1Cl)C(=O)C1CSC2(C)CCC(=O)N12 (centres unmarked),8.28%
17,O=C(NCCCN1CCC(Cc2ccccc2)CC1)c1ccc2nc(N3CCOCC3)sc2c1,-15%
18,CCCCn1nnnc1SCC(=O)Nc1cccc(C)c1,11.1%
19,CCCCOC(=O)/C=C/c1ccc(OC(=O)OC)c(OC(=O)OC)c1,10.7%
20,CC(=O)c1cccc(NC(=S)NC(=O)Cc2ccc(Cl)cc2)c1,14.7%
21,COC(=O)CN1C(=O)C(O)(CC(=O)c2ccc(Cl)cc2)c2ccccc21 (centres unmarked),3.9%
22,CC(C)CCNC(=O)C(=O)Nc1cc2c3c(c1)CCC(=O)N3CCC2,12.5%
23,O=C(COC(=O)/C=C/c1ccccc1)Nc1ccc2c(c1)OCCO2,-5.37%

row,Structure (SMILES),"hERG current change (%, negative = inhibition) at 1uM"
1,COc1cccc(NC(=O)NCc2ccccc2Cl)c1,4%
2,O=C(Cn1c(=O)cnc2ccccc21)NNC(=O)c1ccc(Cl)cc1,15.9%
3,CN1CCN(S(=O)(=O)c2cccc(C(=O)N(Cc3nnc(-c4ccccc4Cl)o3)C3CC3)c2)CC1,-2.29%
4,C[C@]12C=CC(=O)C=C1CC[C@@H]1C2C(O)C[C@@]2(C)C1CC[C@]2(O)C(=O)COC(=O)CCC(=O)NC(CC(=O)O)C(=O)O (some centres unmarked),0.298%
5,O=c1c2nncn2c2cc(C(F)(F)F)ccc2n1CCNc1ncc(C(F)(F)F)cc1Cl,2.31%
6,O=C(Nc1ccc(Br)cn1)c1ccc(COc2c(F)c(F)cc(F)c2F)o1,5.22%
7,CCCCSCCCNC(=O)CCCN1C(=O)c2ccccc2Sc2ncccc21,5.99%
8,CN(Cc1ccccc1)C(=O)c1cc(=O)[nH]c2ccccc12,13.2%
9,C(#CCN1CCCCC1)COCc1ccccc1.Cl,9.67%
10,O=C(c1ccc2c(c1)CCN2S(=O)(=O)c1ccccc1)N1CCN(c2ccccc2)CC1,19.5%
11,CC1(C)CC(=O)c2c(O)cc(OCC(=O)N3CCN(c4ccccc4)CC3)cc2O1,9%
12,COc1cc(C(=O)Oc2cc(C)[nH]c(=O)c2[N+](=O)[O-])cc(OC)c1OC,5.77%
13,Cc1cccc(NC(=O)CC23CC4CC(C2)CC(n2nnc(C)n2)(C4)C3)c1,1.99%
14,Cc1cc(OCCCN2CCCC2)ccc1Cl,1.47%
15,CCN(CC(=O)NCc1ccc(Cl)cc1)C(=O)CCOc1ccccc1C,-38.8%
16,CC(C)CC(=O)Nc1ccc2oc(-c3ccncc3)nc2c1,10.9%
17,Cc1c(NC(=S)NC(=O)c2cc3ccccc3o2)cccc1C(=O)O,3.01%
18,CC(C)(C)NC(=O)c1cccc(NC(=O)c2ccc3c(c2)C(=O)N(C(C)(C)C)C3=O)c1,18.2%
19,COCCNc1oc(/C=C/c2ccccc2OC)nc1S(=O)(=O)c1ccccc1,5.37%
20,COc1cc(CNc2nc3ccccc3s2)cc(OC)c1OC,9.2%
21,CC(=O)COC(=O)CCc1nc2ccccc2[nH]c1=O,0.934%
22,CCN(CC)c1ccc(NC(=O)c2cccc(OC)c2)c(C)c1,7.07%
23,CC1CCN(S(=O)(=O)c2c[nH]c(=O)[nH]c2=O)CC1,7.57%

row,Structure (SMILES),"hERG current change (%, negative = inhibition) at 1uM"
1,Cn1cc(/C=C2\SC(=O)NC2=S)c2ccccc21,11.2%
2,COc1ccc2oc3c(c2c1)NC(=O)CN=C3c1ccccc1,19.8%
3,O=C(O)c1ccccc1NC(=S)NC(=O)c1cccc2ccccc12,9.59%
4,Brc1ccc(N=NNc2ccccc2)cc1,18.7%
5,O=c1[nH]cnc2c1sc1nc(C(F)F)cc(-c3ccccc3)c12,4.07%
6,COCCNC(=O)COc1ccc(C)cc1C(=O)c1cc(C#N)c(=O)n(C2CC2)c1,9.98%
7,CN(C(=O)COC(=O)C1CCN(S(=O)(=O)c2cccs2)CC1)c1ccccc1,2.54%
8,CC(C)(C)c1ccc(/C=N/N2CCN(c3ccccn3)CC2)cc1,6.71%
9,COC(=O)CC1(C(=O)OC)Oc2ccc(Br)cc2C(=O)N1c1cc(Cl)cc(Cl)c1 (centres unmarked),9.12%
10,O=C(CCc1nnc2ccc(NCc3ccco3)nn12)Nc1cccc(F)c1,15.6%
11,COc1ccccc1Nc1nc(N)nc(CSC(=S)N2CCOCC2)n1,7.43%
12,O=C(Nc1cccc(S(=O)(=O)NC2=NCCC2)c1)c1cc(=O)[nH]c2ccccc12,9.28%
13,CCOc1ccccc1NC(=O)c1cc(C(=O)c2cc(Br)ccc2O)coc1=N,18.4%
14,COc1ccc(NC(=O)c2ccc(S(=O)(=O)N(C)C)cc2)cc1OC,2.04%
15,Nn1c(SCC(=O)Nc2ccc3c(c2)OCO3)nnc1-c1ccncc1,4.32%
16,CCS(=O)(=O)NCC(c1ccco1)N1CCN(c2ccccc2)CC1 (centres unmarked),10.7%
17,Cc1cc(C)c(S(=O)(=O)c2ccc(F)cc2C)c(Cl)n1,12.6%
18,COc1ccc(C(=O)CC(=O)C(=O)Nc2ccccc2)cc1,4.29%
19,O=C(Nc1cc(Cl)ccc1-n1cncn1)c1ccc([N+](=O)[O-])s1,4.39%
20,Cc1cc(N/N=C/c2ccncc2)c([N+](=O)[O-])cc1[N+](=O)[O-],10.7%
21,COc1cc(C(=O)Oc2cccc(Nc3ncnc4ccccc34)c2)cc(OC)c1OC,4.04%
22,O=c1c2ccccc2ccc2ccc(P(=O)(O)O)cc12,-30.3%
23,Cc1cc(SCCC(=O)O)nc2c(C)cccc12,12%

row,Structure (SMILES),"hERG current change (%, negative = inhibition) at 1uM"
1,CCC(CC)C(=O)Nc1cccc(C(=O)Nc2ccc(S(N)(=O)=O)cc2)c1,11.9%
2,CCOc1cc(/C=C2\NC(=O)NC2=O)ccc1OC(C)C(=O)O (centres unmarked),13.4%
3,C/C(=N/NC(=O)c1ccco1)c1ccc(NC(=O)c2ccc(F)cc2)cc1,16.6%
4,Cc1cc(S(=O)(=O)NCc2ccccc2)ccc1OCC(=O)NCc1cccnc1,9.38%
5,CC1(c2ccc3noc(-c4ccc(Cl)cc4)c3c2)OCCO1,10.9%
6,O=c1[nH]cc(S(=O)(=O)N2CCOCC2)c(=O)[nH]1,1.01%
7,Cc1ccc(CNC(=O)CCS(=O)(=O)c2ccc(Br)s2)cc1,17.8%
8,CC(=O)Oc1c2occc2cc2ccc(=O)oc12,0.628%
9,Clc1ccc(C2=NCCn3nc4ccccc4c32)cc1,9.46%
10,O=C(COC(=O)C1CC(=O)N(c2ccccc2)C1)c1ccccc1 (centres unmarked),1.02%
11,NS(=O)(=O)c1cccc(NS(=O)(=O)c2ccc(/C=C/C(=O)OCC(=O)c3ccccc3)cc2)c1,18.2%
12,Cc1ccc(C2C(=O)NC(=O)NC2=O)cc1,15.8%
13,CCOC(=O)N1C(=O)[C@@](c2ccc(Cl)cc2)(C(C)C)N1C(=O)OCC,19.5%
14,CCOCCSc1nnc2nc(C)cc(C)n12,9.38%
15,COc1cc(CNCc2ccccc2)cc(Cl)c1OC.Cl,8.62%
16,CCCNC(=O)NS(=O)(=O)c1cnccc1Sc1ccc(Cl)c(Cl)c1,-0.137%
17,CCOC(=O)C1=C(C(F)(F)F)Nc2ncnn2C1c1ccc(OC)cc1OC (centres unmarked),18.9%
18,COc1cccc(O)c1CN1CCC(C(=O)Nc2ccc(-c3cccc(C)c3)cc2)CC1,17.4%
19,COc1cc2c(cc1OC)C(SC)=NC1(CCCC1)C2,13.8%
20,Cc1cc(C)nc(Nc2nc3ccccc3s2)n1,10.7%
